From paper PMC4207660, “Identification and Characterization of Hundreds of Potent and Selective Inhibitors of Trypanosoma brucei Growth from a Kinase-Targeted Library Screening Campaign” (PLoS Neglected Tropical Diseases, 2014)
Values after ≈ are worked out from the molar mass of the structure shown. Where two headings read alike, the source gives them in different places.

Columns and labels:
[1] = tested on: T. brucei brucei parasites (Lister 427 strain); assay: Dose response growth inhibition assay (resazurin, 72 h); format: cell-based; settings: Trypanosoma brucei
Experimental: Greiner sterile black clear bottom 384-well assay plates were pre-dispensing with 200 nL of compound in each well, from master plates at 1 mM (100% DMSO) containing selection from the GSK compound collection. Controls of 0% response (control 1, 200 nL of 100%DMSO) and 100% response (control 2, 200 nL of 1 mM pentamidine) were included in each assay plate in columns 6 and 18, respectively. Plates containing 200 nL of 100% DMSO were included randomly in the assay, to assess quality through all process. […] After this period, 10 µL of 200 µM resazurin solution in prewarmed HMI-9 were added to each well, and plates were allowed to incubate 2 hours more prior fluorescence reading in a Wallac EnVision Multilabel Plate Reader (Perkin-Elmer). Raw fluorescent data from the Envision plate reader were uploaded into GSK HTS database (ActivityBase). Activity of each well was normalized as a percentage of inhibition per-plate basis using the following equation: [drawing 1]
For dose-response experiments, serial compound dilutions of selected hits from the primary campaign were plotted against compound concentration. Dose response master plates were prepared by 3-fold dilutions (starting with 10 mM DMSO stock solutions), providing 11 concentrations. From these master plates, 200 nL per well was stamped in final assay plates, including the same controls describe in the primary single shot assay. Compounds were dispensed as serial dilution curve format, with 11 points at 3-fold dilution and 40 µM as starting top concentration (n = 2). Growth inhibition assay was performed as described in previous assay.
A 4-parameter equation describing a sigmoidal dose-response curve was then fitted with an adjustable baseline using ActivityBase XE Runner software. Fitting of dose-response curves and EC50 determination were normalized as percentage of inhibition based on controls. The curve-fit model was based on a 4-parameter equation: [drawing 2]
Trypanosome cell culture. […]

ChromlogD assay = settings: for logD: reversed-phase HPLC column (Luna C18 (2)), pH 7.4
Experimental: The Chromatographic Hydrophobicity Index (CHI)[22] values were measured using reversed phase HPLC column (Luna C18 (2), Phenomenex, UK) with a fast acetonitrile gradient at starting mobile phase of pH = 7.4. CHI values are derived directly from the gradient retention times by using a calibration line obtained for standard compounds. The CHI value approximates to the volume % organic concentration when the compound elutes. […] The average error of the assay is ±3 CHI unit or ±0.25 ChromlogD.

[2] = CLND kinetic solubility assay; format: physicochemical; settings: phosphate buffered saline, pH 7.4, aqueous buffer, kinetic from dmso stock; Measured; read-out: Aq Sol
Experimental: 5 µL of 10 mM DMSO stock solution was diluted to 100 µL with pH 7.4 phosphate buffered saline, equilibrated for 1 hour at room temperature, filtered through Millipore MultiscreenHTS-PCF filter plates (MSSL BPC). The filtrate was quantified by suitably calibrated flow injection Chemi-Luminescent Nitrogen Detection.

Cytochrome P450 (CYP450) = Cytochrome P450 (CYP450) (Homo sapiens, UniProt P08684); assay: Cytochrome P450 inhibition profile; format: in vitro ADME; settings: Measured; CYP3A4, VR substrate; read-out: CYP3A4VR pXC50 (converted)
Experimental: The P450 inhibition profile of the inhibitors was determined as previously described.

[3] = 72 h, read-out: pEC50 (converted)

Structure (SMILES)	EC50 [1, 3] [nM]	logD (ChromlogD assay)	further results
O=c1[nH]c(=O)n(CC2CCCCC2)c2nc(N3CCOCC3)sc12 [NEU-0001098]	363	4.58	–
CCCCn1nc(C)c2c(=O)[nH]c(-c3cccc(N)c3)nc21 [NEU-0001099]	398	3.29	–
O=C(N[C@H](CO)c1ccccc1)c1ccc2cncc(-c3cn[nH]c3)c2n1 [NEU-0001114]	–	–	solubility kinetic at 1 h [2]: 4 µM (≈ 1.44 µg/mL); PFI (ChromlogD assay): 6.2; IC50 (Cytochrome P450 (CYP450)): 7940 nM
Cc1[nH]nc(Nc2ccnc3[nH]ccc23)c1C [NEU-0001225]	–	–	EC50 ([1]; read-out: T brucei pEC50 (converted)): 126 nM
